In PubChem BioAssay AID1745853 (National Center for Advancing Translational Sciences (NCATS), 2022):
Where “and” joins values, the source holds several entries; their conditions need not be identical. Identical values can stand only once. This is one part of the list. Further columns of the screen follow, without active or inactive calls.

Assays:
Test in all cases: Primary Screen for Target Class Profiling of Small Molecule Inhibitors of Methyltransferases
[1] = target: Glycine N-methyltransferase (Homo sapiens) (UniProt Q14749); conditions: purified enzyme, MTase-Glo SAH luminescence; measured here: GNMT inhibition; at 40 µM; stronger effect = lower value
Outline: (§1)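 Each enzyme was assayed with SAM and its substrate. SAH formation detected by MTase-Glo luminescence; single-point 40 uM screen[…].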

[2] = target: Guanidinoacetate N-methyltransferase (Homo sapiens) (UniProt Q14353); conditions: purified enzyme, MTase-Glo SAH luminescence; measured here: GAMT inhibition; at 40 µM; stronger effect = lower value
Outline: as §1

[3] = target: Histamine N-methyltransferase (Homo sapiens) (UniProt P50135); conditions: purified enzyme, MTase-Glo SAH luminescence; measured here: HNMT inhibition; at 40 µM; stronger effect = lower value
Outline: as §1

[4] = target: Nicotinamide N-methyltransferase (Homo sapiens) (UniProt P40261); conditions: purified enzyme, MTase-Glo SAH luminescence; measured here: NNMT inhibition; at 40 µM; stronger effect = lower value
Outline: as §1

[5] = target: Phenylethanolamine N-methyltransferase (Homo sapiens) (UniProt P11086); conditions: purified enzyme, MTase-Glo SAH luminescence; measured here: PNMT inhibition; at 40 µM; stronger effect = lower value
Outline: as §1
% is set by controls: 0 for no effect and ±100 for the full control effect.

Row | Structure (SMILES) | activity change, negative = inhibition [1] | activity change, negative = inhibition [2] | activity change, negative = inhibition [3] | activity change, negative = inhibition [4] | activity change, negative = inhibition [5]
1 | O=C(C1CCCCC1)N1C[C@@H]2C[C@H](C1)c1c(-c3cncnc3)ccc(=O)n1C2 | -3.23% | -7.24% | -1.9% | -9.97% | -3.58%
2 | c1ccc2sc(C3(N4CCCCC4)CCCCC3)cc2c1 | -4.24% | 4.34% | -18.5% | -9.66% | 7.76%
3 | COc1cccc(NC(=O)N2Cc3ccccc3-n3cccc3C2c2ccc(N(C)C)cc2)c1 (stereo not given) | 1.67% | 2.84% | -4.56% | -3.33% | -2.45%
4 | CSc1cccc(NC(=O)N2Cc3ccccc3-n3cccc3C2c2cccs2)c1 (stereo not given) | 3.42% | -2.5% | 0.775% | -6.36% | -2.15%
5 | C[N+]1(C)C2CCC1CC(OC(=O)c1c[nH]c3ccccc13)C2 (stereo not given) | -14.8% | -1.14% | -3.38% | -8.95% | 2%
6 | COc1ccc(C2c3cccn3-c3ccccc3CN2C(=O)Nc2cc(C)ccc2C)cc1OC (stereo not given) | 13.5% | 3.42% | 5.6% | -1.7% | 7.37%
7 | C=CCN1CC[C@]23c4c5ccc(O)c4O[C@H]2[C@@H](O)CC[C@@]3(O)[C@H]1C5 | -4.5% | -8.7% | -5.45% | -23.4% | -7.02%
8 | O=C(NCCN1CCC2(CC1)C(=O)NCN2c1cccc(F)c1)c1ccc(F)c(F)c1 | -9.55% | -13.6% | -34.3% | -25.3% | -15.2%
9 | CCOCCCNC(=O)N1Cc2ccccc2-n2cccc2C1c1cccc(C)c1 (stereo not given) | 10.5% | 0.477% | 7.52% | 8.88% | 7.58%
10 | C#CCO[C@H]1CN2CCC1CC2 | 2.23% | 8.23% | -2.03% | -12.7% | -6.2%
11 | COc1ccc(C)cc1NC(=O)N1Cc2ccccc2-n2cccc2C1c1cccs1 (stereo not given) | 7.01% | 0.535% | -1.81% | -9.64% | -0.462%
12 | CCC1c2cccn2-c2ccccc2CN1C(=O)Nc1cc(C)ccc1OC (stereo not given) | -1.9% | 0% | 0.396% | 1.26% | 3.4%
13 | CCN1C[C@]2(OC(=O)c3ccccc3NC(C)=O)CC[C@H](OC)[C@@]34[C@@H]2C[C@@H]([C@@H]13)[C@@]1(O)C[C@H](OC)[C@H]2C[C@@H]4[C@]1(O)[C@H]2OC | 7.41% | 4.27% | 15.3% | -10.6% | 4.19%
14 | CCOC(=O)CNC(=O)N1Cc2ccccc2-n2cccc2C1c1ccccc1C (stereo not given) | 15.2% | 0.247% | 8.74% | 9.86% | 11.7%
15 | COc1cc(OC)c(NC(=O)N2Cc3ccccc3-n3cccc3C2c2ccccc2)cc1Cl (stereo not given) | 5.16% | 4.91% | -3.02% | 0.656% | -0.715%
16 | O=C(Nc1ccc2c(c1)OCCO2)N1Cc2ccccc2-n2cccc2C1c1cccc(Cl)c1 (stereo not given) | 9.11% | 4.64% | 1.31% | -3.02% | 1.38%
17 | CCOc1ccc2c(n1)CCNC2 | -1.14% | -4.85% | 0.05% | -1.46% | -2.47%
18 | Cc1ccc(NC(=O)N2Cc3ccccc3-n3cccc3C2c2ccc(N(C)C)cc2)cc1 (stereo not given) | 10.9% | 0% | 4.27% | 8.23% | 9.9%
19 | CCOc1ccc(NC(=O)N2Cc3ccccc3-n3cccc3C2c2ccccc2)cc1 (stereo not given) | 3.35% | -3.28% | -2.27% | -5.34% | -3.42%
20 | COc1ccc(NC(=O)N2Cc3ccccc3-n3cccc3C2c2ccccc2)c(OC)c1 (stereo not given) | 5.25% | 3.67% | -0.102% | 0.176% | 3.62%

Row | Structure (SMILES) | activity change, negative = inhibition [1] | activity change, negative = inhibition [2] | activity change, negative = inhibition [3] | activity change, negative = inhibition [4] | activity change, negative = inhibition [5]
21 | CN1CC[C@@]2(C)c3cc(O)ccc3N(C)C12 (stereo not given in full) | -56.2% | -19.2% | -16.5% | -19.6% | -28.9%
22 | CCc1ccc(C2c3cccn3-c3ccccc3CN2C(=O)Nc2ccccc2CC)cc1 (stereo not given) | 13.9% | 0% | 6.45% | 0.517% | 7.4%
23 | O=C(NCc1ccccc1)N1Cc2ccccc2-n2cccc2C1c1ccccc1Cl (stereo not given) | -0.611% | -6.66% | 1.25% | -6.22% | -3.56%
24 | CNc1ccc2oc(C[C@H]3O[C@@]4(CC[C@H]3C)O[C@H]([C@H](C)C(=O)c3ccc[nH]3)[C@H](C)C[C@H]4C)nc2c1C(=O)O | -63.5% | -65.2% and -19.1% | -11.8% | -63.9% and -9.77% | -81.8% and -23.5%
25 | CC(C)C1c2cccn2-c2ccccc2CN1C(=O)Nc1ccccc1F (stereo not given) | 1.83% | 0% | -5.54% | 1.43% | 5.32%
26 | COc1ccc2c(c[n+](C)c3c4cc5c(cc4ccc23)OCO5)c1OC | -83.8% | -31.1% | -13.9% | -28.9% | -42.2%
27 | Cc1c(Cl)cccc1S(=O)(=O)Nc1nc(CC(=O)N2CCN(C)CC2)cs1 | 4.16% | 1.93% | 9.71% | -13.3% | 0.565%
28 | COc1ccc(C2c3cccn3-c3ccccc3CN2C(=O)Nc2cccc(Cl)c2)cc1OC (stereo not given) | 14.9% | 1.17% | 9.13% | 11.2% | 11%
29 | Cc1cccc(C2c3cccn3-c3ccccc3CN2C(=O)NCCc2ccccc2)c1 (stereo not given) | 7.19% | 0% | -1.08% | 0.39% | 5%
30 | Cc1cccnc1CN1CCN2C(=O)N(c3ccccc3)C[C@H]2C1 | -3.65% | -2.75% | 0.298% | -0.862% | 1.94%
31 | Cc1ccccc1NC(=O)N1Cc2ccccc2-n2cccc2C1c1ccccc1C (stereo not given) | 13.8% | 0% | 10% | 0.648% | 10.3%
32 | CCN1C[C@]2(COC(=O)c3ccccc3N3C(=O)C[C@H](C)C3=O)CC[C@H](OC)[C@@]34[C@@H]5C[C@H]6[C@H](OC)[C@@H]5[C@](O)(C[C@@H]6OC)[C@](O)([C@@H](OC)[C@H]23)[C@@H]14 | 3.54% | 3.92% | 11.7% | -7.17% | 6.11%
33 | CCOc1ccc(C2c3cccn3-c3ccccc3CN2C(=O)Nc2cccc(C(=O)OC)c2)cc1 (stereo not given) | 2.15% | 5.75% | 8.8% | 7.46% | 8.89%
34 | c1ccc2c(c1)[I+]c1ccccc1-2 | -4.88% | 11.2% | -26% | -21.5% | 5.01%
35 | O=S(=O)(NC[C@H]1C[C@@H]2CCN1C[C@@H]2CN1CCOCC1)c1ccccc1 | -5.49% | -4.75% | -2.61% | -11.1% | -21.9%
36 | COc1ccc(NC(=O)N2Cc3ccccc3-n3cccc3C2c2ccc(F)cc2)c(OC)c1 (stereo not given) | -1.29% | 1.06% | 1.97% | -0.754% | 2.93%
37 | CCc1ccccc1NC(=O)N1Cc2ccccc2-n2cccc2C1C (stereo not given) | 4.09% | 3.31% | 2.22% | 3.33% | 7.91%
38 | CSc1cccc(NC(=O)N2Cc3ccccc3-n3cccc3C2c2ccc(N(C)C)cc2)c1 (stereo not given) | 15.7% | 2.54% | 7.12% | 4.99% | 9.53%
39 | C[C@@]1(C(=O)O)CC[C@]2(C)CC[C@]3(C)C4=CC(=O)c5cc(O)c(O)cc5[C@]4(C)CC[C@@]3(C)[C@@H]2C1 | 1.52% | 7.71% | 6.33% | -8.36% | 4.5%
